Out of some 310,000 compounds screened, about 14,000 (4.5%) showed an effect of 50% or more. The effect is printed as a negative number. The list shows a part of the results.
target: human ether-à-go-go-related gene (hERG) potassium channel (human, UniProt Q12809); test: primary screen, population patch clamp on CHO cells stably expressing hERG
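Also: peak tail current of the secondary pulse compared with the same well before compound.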

human ether-à-go-go-related gene (hERG) potassium channel, sequence (Q12809 whole entry, looked up): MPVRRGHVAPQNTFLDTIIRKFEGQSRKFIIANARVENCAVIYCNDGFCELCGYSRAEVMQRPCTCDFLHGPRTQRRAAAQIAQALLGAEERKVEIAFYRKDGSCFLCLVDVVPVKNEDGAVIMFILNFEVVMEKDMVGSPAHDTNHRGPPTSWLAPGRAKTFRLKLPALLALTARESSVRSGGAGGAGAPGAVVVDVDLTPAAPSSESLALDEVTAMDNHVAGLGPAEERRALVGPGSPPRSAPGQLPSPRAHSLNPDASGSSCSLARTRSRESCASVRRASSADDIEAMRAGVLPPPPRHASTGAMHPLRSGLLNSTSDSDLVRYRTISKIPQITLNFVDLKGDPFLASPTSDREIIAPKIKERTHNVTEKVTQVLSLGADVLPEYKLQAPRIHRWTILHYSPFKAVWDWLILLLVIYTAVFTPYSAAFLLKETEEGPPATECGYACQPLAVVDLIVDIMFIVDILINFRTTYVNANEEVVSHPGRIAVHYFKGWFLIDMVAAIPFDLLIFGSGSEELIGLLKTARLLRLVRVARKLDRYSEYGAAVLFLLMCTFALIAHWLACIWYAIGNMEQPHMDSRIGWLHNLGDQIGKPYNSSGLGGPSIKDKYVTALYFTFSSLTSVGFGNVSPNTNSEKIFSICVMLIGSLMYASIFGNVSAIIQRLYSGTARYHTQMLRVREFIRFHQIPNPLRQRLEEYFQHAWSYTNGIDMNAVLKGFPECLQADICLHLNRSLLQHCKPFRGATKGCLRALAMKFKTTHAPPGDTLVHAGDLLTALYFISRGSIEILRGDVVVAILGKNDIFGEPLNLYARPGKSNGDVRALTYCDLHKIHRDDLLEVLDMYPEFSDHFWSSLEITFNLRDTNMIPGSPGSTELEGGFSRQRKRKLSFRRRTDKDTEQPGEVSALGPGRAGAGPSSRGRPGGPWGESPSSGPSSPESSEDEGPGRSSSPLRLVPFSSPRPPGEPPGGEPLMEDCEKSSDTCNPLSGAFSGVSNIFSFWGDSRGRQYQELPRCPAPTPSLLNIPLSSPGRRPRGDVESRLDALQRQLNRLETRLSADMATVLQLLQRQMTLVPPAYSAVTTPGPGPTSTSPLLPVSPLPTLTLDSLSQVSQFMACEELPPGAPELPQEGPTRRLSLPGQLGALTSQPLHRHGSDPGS

Structure (SMILES) | hERG current change (%, negative = inhibition) at 10uM
COc1c2ccccc2c(OC)c2ccccc12 | 12.9%
COCCn1c(SCC(=O)Nc2ccccc2C)nc2c(oc3ccccc32)c1=O | -7.62%
COC(=O)N1C(=O)[C@](c2ccccc2)(C2CCCCC2)N1C(=O)OC | -2.97%
CC1CCCN(S(=O)(=O)c2cnc[nH]2)C1 (stereo not drawn) | 19.9%
Cc1ccc(/C=N/NC(=O)C(c2ccncc2)N2CCOCC2)cc1 (stereo not drawn) | 23.3%
Cc1cc(C(=O)NNC(=O)c2sccc2C)c(C)o1 | 7.27%
CC(=O)NC(=S)Nc1ccccc1C(=O)NC1CCCCC1 | 3.33%
O=C1c2ccccc2S(=O)(=O)c2cc(C(=O)N3CCN(C(=O)c4ccccc4)CC3)ccc21 | -15.1%
NC(=NC(=O)c1ccccc1)C1=C(O)CCC1=O | 9.75%
CCn1c(-c2cccc(Br)c2)n[nH]c1=S | 13.1%
Cc1ccc(NC(=O)CN(C)S(=O)(=O)c2cnc[nH]2)c(C)c1 | 19.2%
N#CC1=C(S)N(c2ccccc2)C(c2ccc(-c3ccc(Cl)c(Cl)c3)o2)NC1=O (stereo not drawn) | -2.64%
COc1ccc(OC)c(C(=O)CSc2nnc(-c3cccnc3)n2C)c1 | -3.44%
CSc1c(SCc2ccccc2)cnn(-c2ccccc2)c1=O | 2.2%
Cc1ccc(C2CC(c3cccs3)=NN2C(=O)CSC2=NCCS2)cc1 (stereo not drawn) | -2.21%
O=C(NNC(=O)c1cccs1)c1ccc(Cl)c(Cl)c1 | 12.4%
Clc1ccc(CSc2nnc(/C=C/c3ccccc3)o2)cc1 | 1.88%
Cc1cccc(N2CCN(C(=O)COc3ccc4c(C)cc(=O)oc4c3C)CC2)c1C | 13.6%
Cn1c(NC2CCCCC2)c(N=O)c(=O)n(C)c1=O | 20.7%
CC(C)=CCCC(C)CN1CCC(n2nccc2NC(=O)c2ccccc2)CC1 (stereo not drawn) | -69.6%
Cc1cc(NC(=O)Cn2ccsc2=N)c([N+](=O)[O-])cc1C.Cl | 4.96%
Cc1nnc(-c2ccccc2)c(=O)n1/N=C/c1c(O)ccc2ccccc12 | -3.04%
Cc1cc(Br)ccc1NC(=O)C1CCCO1 (stereo not drawn) | 5.26%

Structure (SMILES) | hERG current change (%, negative = inhibition) at 10uM
Cc1[nH]n(-c2ccccc2)c(=O)c1C=NCC1CCCO1 (stereo not drawn) | 13.8%
Cc1ccc(NC(=O)N2CCN(C/C=C/c3ccccc3)CC2)cc1 | -44.6%
CNC(=O)ON(C(=O)NC)C1N(C)C(=S)SC1(C)C (stereo not drawn) | -0.704%
O=C(c1ccco1)N(Cc1ccc(Cl)cc1)Cc1ccco1 | -41.2%
CC(C)C[C@H](NC(=O)c1[nH]cnc1C(=O)N[C@@H](C)c1ccccc1)C(=O)OCc1ccccc1 | 23.4%
CC1CCN(S(=O)(=O)c2ccc(NC(=O)CSc3nnnn3C)cc2)CC1 | 2.11%
O=C(Nc1nnc(Cc2ccccc2F)s1)c1ccccc1Cl | 12.6%
CC(O)[C@H]1CNCCN1CCc1cccc2ccccc12 (stereo partly drawn) | 0.0573%
CCCCOc1ccc(C(=O)NCCOc2cccc(OC)c2)cc1 | 11.2%
CN(C)C(=O)COc1ccc2c(-c3ccccc3)cc(=O)oc2c1 | -0.783%
Cc1cc(C)nc(SCC(=O)c2cc3ccccc3oc2=O)n1 | -4.4%
CCOc1cc2c(cc1OCC)-n1cccc1C(c1ccc(OC)c(OC)c1)NC2.Cl (stereo not drawn) | -30.2%
COc1ccc(CN2CCc3ccc(NC(=O)c4ccncc4)cc3C2)c(F)c1 | -14.5%
CC1(C)Cc2cccc(OCC(N)=O)c2O1 | 16.7%
C=CCN1C(=O)/C(=C/C(=O)OC)S/C1=N\NC(=O)c1ccccc1 | 4.18%
CCc1n[nH]c(=S)n1/N=C/c1cccc2ccccc12 | 14.4%
CCc1ccc(NC(=O)N2CCc3ccccc3C2)cc1 | -1.47%
CC(=O)Nc1cccc(NC(=O)CSc2nc(=O)n3cccc(C)c3n2)c1 | 14.9%
CC(=O)Nc1nc2ccccc2n1CCOc1ccccc1Cl | 13.7%
Cc1cc(C(=O)Nc2nc3c(s2)CCCC3)cs1 | 1.75%
Cc1ccc(C2(CCNCc3ccc(N(C)C)cc3)CCOC(C(C)C)C2)cc1 (stereo not drawn) | -64.1%
Cn1cnc(S(=O)(=O)N2CCN(C(c3ccc(F)cc3)c3ccc(F)cc3)CC2)c1 | -7.05%
O=C(OC1CCOC1=O)c1ccc(S(=O)(=O)N2CCCCCC2)cc1 (stereo not drawn) | 8.9%

Structure (SMILES) | hERG current change (%, negative = inhibition) at 10uM
O=C(Nc1nnc(SCc2ccc(F)cc2)s1)c1cnccn1 | -3.13%
CCc1ccc(OCc2nnc(SCCN3CCOCC3)n2C)cc1.O=C(O)C(=O)O | 0.796%
Cn1cnnc1SCC(=O)c1ccc2c(c1)OCO2 | -16.5%
COc1ccc(C(C#N)(CC(=O)O)c2cnccn2)cc1OC (stereo not drawn) | 9.24%
N#Cc1c(/N=C/c2c(O)n(Cc3ccco3)c(=O)[nH]c2=O)sc2c1CCCC2 | -12.9%
Cc1cc(C)c2[nH]c(=S)cc(C)c2c1 | 15.9%
CN1CCN(C(=S)NC(=O)/C=C/c2ccccc2)CC1 | -17.3%
CCNC(=O)COC(=O)CNC(=O)c1cc(Cl)cc([N+](=O)[O-])c1 | -2.83%
O=C(NC1CCCC1)C(c1ccccc1)N(Cc1ccccc1)C(=O)c1csnn1 (stereo not drawn) | -19.6%
CCN(CC)c1ccc(NC(=O)Cn2ncc3c(C)n(Cc4ccccc4F)c(C)c3c2=O)c(C)c1 | 7.08%
OCc1nc2ccc(Cl)cc2[nH]1 | 3.62%
Brc1cccc(-c2cnc3n2CCCCC3)c1.Cl | -48.4%
Cn1c(=O)oc2cc(S(=O)(=O)NCc3cccnc3)ccc21 | 13%
Cc1csc(NC(=O)[C@@H](NC(=O)c2ccccc2)C(C)C)n1 | -2.37%
CC1(C)CC(=O)C(C(c2ccccc2F)C2C(=O)CC(C)(C)CC2=O)C(=O)C1 | 14.2%
O=C(Nc1ccc2c(c1)CCC2)c1cc(=O)[nH]c2ccccc12 | 2.1%
O=C(COC(=O)c1cc(Br)ccc1O)Nc1ccc2c(c1)OCO2 | 2.65%
N#Cc1ccc(NC(=O)CNc2cc(S(=O)(=O)N3CCOCC3)ccc2NCC2CCCO2)cc1 (stereo not drawn) | -70%
CN(CC(=O)NCc1ccncc1)S(=O)(=O)c1ccc(Cl)cc1 | -12.2%
O=C(NCc1ccccc1)Nc1cccc2ccccc12 | 16.7%
CC(=O)N1CC=CC1(CC(C)C)C(=O)NCc1cc(F)cc(C(F)(F)F)c1 (stereo not drawn) | 2.67%
CCCCNC(=O)Nc1ncn[nH]1 | -27.7%
CCOC(=O)c1c(C)[nH]c(C(=O)N2CCCC(C(=O)c3ccccc3OC)C2)c1C (stereo not drawn) | -4.49%

Structure (SMILES) | hERG current change (%, negative = inhibition) at 10uM
Cc1nc(-c2cccc(NC(=O)C(C)Oc3ccccc3)c2)cs1 (stereo not drawn) | -13.7%
O=C(c1ccc(NS(=O)(=O)c2ccc(F)cc2)cc1)N1CCCCCC1 | -30.2%
O=C(O)CCC(=O)N1CCN(c2ccc(C(=O)c3ccc(F)cc3)cc2)CC1 | 0.927%
COc1ccc(S(=O)(=O)N2CCCCC2)cc1C(=O)Nc1cc(C)on1 | -12.5%
Cc1ccc(S(=O)(=O)N2CCOCC2)cc1NS(=O)(=O)c1ccc(F)c(F)c1 | -4.13%
O=C(c1ccc(Sc2ccccc2)c([N+](=O)[O-])c1)N1CCOCC1 | -1.42%
Cc1cc(C)c(OCCCCCn2ccnc2)c(C)c1 | -24.9%
COC(=O)CCCC[C@@H]1SC[C@@H](NC(=O)OC)[C@@H]1NC(=O)OC | 5.49%
CCc1cccc(C)c1NC(=S)N(CCCN1CCOCC1)Cc1cccnc1 | -6.65%
Cc1ccc(OCC(=O)N2CCN(c3nnc(-c4ccccc4)c4ccccc34)CC2)cc1 | -61.5%
COC(=O)c1ccc(C(C(=O)NC2CCCCC2)N(CCN2CCOCC2)C(=O)Cc2cccs2)cc1 (stereo not drawn) | -15.3%
CCn1c2ccccc2c2cc(CN3CCN(S(=O)(=O)Cc4ccccc4)CC3)ccc21.O=C(O)C(=O)O | 21.3%
CCc1ccc(-n2c(=S)sc3c(=O)n(-c4ccccc4C)c(SCC(=O)O)nc32)cc1 | -0.575%
CC(C)CNS(=O)(=O)c1ccc(OCC(=O)Nc2ccc3c(c2)OCCO3)cc1 | 12.7%
CN(C)/C=C/C(=O)c1ncc(C(F)(F)F)cc1Cl | 8.95%
CC(O)C(NS(=O)(=O)c1ccc(Cl)cc1)C(=O)OCC(=O)N1CCN(c2ccccc2)CC1 (stereo not drawn) | -25.1%
CC(CC(=O)O)CC(=O)Nc1nncs1 (stereo not drawn) | -1.38%
COC(=O)c1cc(Cl)c(NC(=O)/C=C/c2ccc(OC)cc2)cc1OC | 8.16%
Cc1cc(OCC(=O)OCC(=O)Nc2ccc(Cl)cn2)ccc1Cl | 2.46%
O=[N+]([O-])c1cccc(S(=O)(=O)N2CCCCC2)c1 | 8.54%
CS(=O)(=O)O.c1cnc(N2CCN(Cc3ccc4c(c3)OCO4)CC2)nc1 | 3.93%
